Usually % Inhibition stands for the change of the read-out against control, counted positive when it falls.

The whole screen tested about 150,000 compounds, of which about 540 (0.36%) showed an effect of 50% or more. Some of the results follow.

The source of these data is ChEMBL document CHEMBL4888484, “Replenishing the malaria drug discovery pipeline: Screening and hit evaluation of the MMV Hit Generation Library 1 (HGL1) against asexual blood stage Plasmodium falciparum ,using a nano luciferase reporter read-out” (2022).

The test system of this assay is Plasmodium falciparum. Briefly: Primary screen in NF54 nanoGlo assay, in single point, at 2uM, 72h; a lower Z score goes with more inhibition. It is filed as functional, Erythrocyte. To be noted: timepoint 72 hour.
Turning to `O=S(=O)(c1ccc(OCC(F)(F)F)nc1)N1CCCc2ccccc21`, the “% Inhibition” value was -12% and the Z score was determined as 2.38.

As to `O=C(Nc1cnn2c1NCCC2)c1scc2c1CCCC2`, the “% Inhibition” value was -6% and the Z score is reported as 1.2.

As for `CN=C(NCCCOC[C@H]1CCOC1)NC1CC(c2ccccc2)C1` (stereo partly drawn), the “% Inhibition” value was -4% and the Z score stood at 0.38.

As to `O=C(NCc1cccnc1N1CCCC1)c1cccnc1O[C@H]1CCOC1`, the “% Inhibition” value is recorded as -4% and the Z score was 0.73.

For the molecule `C[C@@H]1CN(C[C@@H]2CN(C(=O)C3CCC3)C[C@@H]2CO)C[C@H](C)O1`, the “% Inhibition” value is recorded as -8% and the Z score was found to be 1.37.

Regarding `CC(C)(C)c1ccn(C2(C(=O)O)CCN(Cc3cccnc3N)CC2)n1`, the “% Inhibition” value is reported as 6% and the Z score is given as -0.86.

For `CCN1CCC(CC(=O)N2CCc3onc(-c4ccccc4)c3C2)CC1`, the “% Inhibition” value amounted to 2% and the Z score is on record as -0.22.

Consider `COc1ccc(C[C@@]2(C)CNC(=O)O2)cc1OC`, for which the “% Inhibition” value is on record as -15% and the Z score worked out at 1.51.

As for `Cc1noc(-c2ccccc2Cl)c1C(=O)NCCc1cccc(Cl)c1`, the “% Inhibition” value is on record as -13% and the Z score amounted to 2.48.

In the case of `C[C@@H](CC#N)N(C)C(=O)Nc1cnn(Cc2ccccn2)c1`, the “% Inhibition” value was -9% and the Z score is recorded as 1.15.

For the molecule `CCn1cc(CN[C@@H](C)c2cc3ccccc3o2)cn1`, the “% Inhibition” value was -1% and the Z score was 0.1.

For `CC(C)Cn1cc(NCc2cnn(C(C)(C)C)c2)cn1`, the “% Inhibition” value is on record as -17% and the Z score is given as 1.98.

Take `Fc1ccc(-c2cnc3n2C[C@H](CNCc2ccc4c(c2)OCO4)OC3)cc1`: the “% Inhibition” value is 16% and the Z score is listed as -1.92.

For `Cc1c(S(=O)(=O)N[C@H]2CCCN(CC(F)(F)F)C2)cnn1C`, the “% Inhibition” value worked out at 7% and the Z score was -0.56.

On to `CC(C)CC(=O)N(CC(=O)N(Cc1ccco1)C[C@H]1CCCO1)CC(C)C`, for which the “% Inhibition” value is 9% and the Z score is -1.42.

Regarding `COc1cccc(Cn2c(=O)c3sccc3n(CC(=O)NCCc3ccc(Cl)cc3)c2=O)c1`, the “% Inhibition” value turned out to be 7% and the Z score is -0.93.

On to `CCc1ccc(C(=O)N2CCCN(c3nc(CCC(C)C)nc4c3cnn4-c3cccc(Cl)c3)CC2)cc1`, for which the “% Inhibition” value is on record as -8% and the Z score amounted to 1.2.

As to `O=C(COC1CCCCC1)Nc1ccncc1F`, the “% Inhibition” value is -1% and the Z score was determined as 0.1.

Consider `COC(=O)[C@](C)(NCc1nc2ccccc2o1)c1cc(F)ccc1F`, for which the “% Inhibition” value came out at 2% and the Z score is reported as -0.24.

On to `Cc1cc(C)nc(Cn2ccnc2-c2oc3ccccc3c2C)n1`, for which the “% Inhibition” value was 17% and the Z score is -2.15.

As to `O=c1ccc(-c2ccccn2)nn1CC1CC2(CCC2)C1`, the “% Inhibition” value is given as 0% and the Z score is recorded as -0.03.

Regarding `Cc1csc(CNC(=O)c2nnc3nc(C)cc(C)n23)n1`, the “% Inhibition” value is reported as 7% and the Z score is listed as -1.07.

`CC[C@@H](C(=O)NC(C)C)c1ccccc1`: the “% Inhibition” value was -4% and the Z score turned out to be 0.76.

Take `CCOCc1nc(-c2ccc(-n3cccn3)cc2)n(C2CCN(C)CC2)n1`: the “% Inhibition” value amounted to 0% and the Z score was -0.05.
